{"source": "the supplement of paper PMC3334620", "note": "Over roughly 33,000 sequences, “E-score (-0.5 to 0.5)” has its median near -0.013; the highest 2% begin near 0.3. The list shows a part of the results."}
{"target": "T1, Msn1 (UniProt P22148)", "T1 sequence": "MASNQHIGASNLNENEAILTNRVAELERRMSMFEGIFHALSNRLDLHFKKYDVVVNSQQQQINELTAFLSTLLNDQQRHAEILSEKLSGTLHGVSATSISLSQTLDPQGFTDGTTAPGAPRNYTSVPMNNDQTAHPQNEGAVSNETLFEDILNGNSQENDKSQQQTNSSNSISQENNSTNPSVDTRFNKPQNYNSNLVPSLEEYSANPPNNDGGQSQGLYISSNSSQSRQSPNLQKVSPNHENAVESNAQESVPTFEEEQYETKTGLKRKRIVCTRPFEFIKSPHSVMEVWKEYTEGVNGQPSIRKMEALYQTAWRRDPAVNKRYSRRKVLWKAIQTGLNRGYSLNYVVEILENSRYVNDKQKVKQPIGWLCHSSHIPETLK", "assay": "PBM E-score (8-mer binding enrichment) (E-score (-0.5 to 0.5)); higher = stronger / more preferred TF binding; most listed sequences are background and not binding sites", "conditions": "protein concentration: 200 nM; construct: GST-full length", "summary_of_the_method": "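Masliner-normalised scans of fluorescent anti-GST signal were the basis for scoring. That signal came from GST-tagged yeast transcription factors applied at about 100-200 nM to double-stranded universal all-10-mer Agilent arrays on fresh or once-stripped slides. Each ungapped eight-base word, pooled with its reverse complement, received an E-score from the Universal PBM Analysis Suite.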"}
{"sequence": "CGTACTCA", "PBM E-score": 0.0682}
{"sequence": "CCGGCGCA", "PBM E-score": -0.00256}
{"sequence": "CAAGACAC", "PBM E-score": 0.183}
{"sequence": "GATTACAA", "PBM E-score": 0.168}
{"sequence": "GGGACAGA", "PBM E-score": 0.262}
{"sequence": "ATTGGTCG", "PBM E-score": 0.0591}
{"sequence": "AGCCGGTA", "PBM E-score": 0.0338}
{"sequence": "CGCTGTGA", "PBM E-score": -0.0621}
{"sequence": "CCCCCCAG", "PBM E-score": -0.418}
{"sequence": "GGCTTGAC", "PBM E-score": -0.0486}
{"sequence": "ACAATGAA", "PBM E-score": 0.147}
{"sequence": "ATGTGTAG", "PBM E-score": -0.124}
{"sequence": "CTCGTGTA", "PBM E-score": 0.0423}
{"sequence": "GCGATCGC", "PBM E-score": 0.0755}
{"sequence": "GGAGGTAA", "PBM E-score": -0.0325}
{"sequence": "AGAGCTCA", "PBM E-score": -0.106}
{"sequence": "ACCTCATA", "PBM E-score": 0.00341}
{"sequence": "CCTCGCGC", "PBM E-score": -0.134}
{"sequence": "AGTGCAAT", "PBM E-score": -0.0103}
{"sequence": "ATCTAGAG", "PBM E-score": -0.106}
{"sequence": "ATCTATGA", "PBM E-score": -0.0389}
{"sequence": "AGGCCCCG", "PBM E-score": -0.261}
{"sequence": "CCTAGACA", "PBM E-score": 0.0613}
{"sequence": "ATACCTGA", "PBM E-score": 0.163}
{"sequence": "CTCATAAA", "PBM E-score": 0.0862}
{"sequence": "CGATTTGC", "PBM E-score": -0.0666}
{"sequence": "CGGTCCTC", "PBM E-score": -0.149}
{"sequence": "CAGGTGAC", "PBM E-score": -0.109}
{"sequence": "GGTCATGA", "PBM E-score": -0.078}
{"sequence": "CGAAACTA", "PBM E-score": 0.109}
{"sequence": "CTTTTGCC", "PBM E-score": 0.128}
{"sequence": "GAGACCCC", "PBM E-score": -0.312}
{"sequence": "ATTTCCTG", "PBM E-score": 0.206}
{"sequence": "GGACAGCA", "PBM E-score": 0.164}
{"sequence": "CGAATGAA", "PBM E-score": -0.0327}
{"sequence": "ATATACTG", "PBM E-score": 0.117}
{"sequence": "ATTTTTTC", "PBM E-score": 0.0778}
{"sequence": "AGGCAAGC", "PBM E-score": -0.104}
{"sequence": "CATGATAC", "PBM E-score": 0.203}
{"sequence": "CTGGCTGC", "PBM E-score": -0.255}
{"sequence": "CGTCCCTA", "PBM E-score": -0.0646}
{"sequence": "CGAGATTC", "PBM E-score": 0.11}
{"sequence": "CCAAGTAG", "PBM E-score": -0.0246}
{"sequence": "CCTGGTCG", "PBM E-score": -0.109}
{"sequence": "AAAGTGTC", "PBM E-score": 0.184}
{"sequence": "ACTATGGA", "PBM E-score": 0.164}
{"sequence": "CCCGTCGA", "PBM E-score": -0.138}
{"sequence": "GATAAAAA", "PBM E-score": 0.211}
{"sequence": "ACTGCTAG", "PBM E-score": 0.00032}
{"sequence": "AGGGGGGG", "PBM E-score": -0.499}
{"sequence": "AGACTTTG", "PBM E-score": 0.131}
{"sequence": "AATTTTGA", "PBM E-score": 0.161}
{"sequence": "GATCAGTA", "PBM E-score": 0.11}
{"sequence": "CCAAGGAA", "PBM E-score": -0.147}
{"sequence": "ACGCCGGA", "PBM E-score": -0.112}
{"sequence": "ACGGAATA", "PBM E-score": 0.141}
{"sequence": "AAACACCC", "PBM E-score": -0.0894}
{"sequence": "CCCGTCGC", "PBM E-score": -0.27}
{"sequence": "AGAGCTTG", "PBM E-score": -0.0326}
{"sequence": "ATTCACAG", "PBM E-score": 0.0379}
{"sequence": "ATGAGAGG", "PBM E-score": -0.263}
{"sequence": "AGCCCGTA", "PBM E-score": -0.249}
{"sequence": "ACGAAGAA", "PBM E-score": 0.0996}
{"sequence": "GCCACTCC", "PBM E-score": -0.377}
{"sequence": "AACGTTTA", "PBM E-score": -0.0111}
{"sequence": "GTACGATA", "PBM E-score": 0.0417}
{"sequence": "AAACATGT", "PBM E-score": 0.17}
{"sequence": "CGTCATAA", "PBM E-score": 0.122}
{"sequence": "CCAACTGA", "PBM E-score": -0.0383}
{"sequence": "GTTGCACA", "PBM E-score": -0.0867}
{"sequence": "AAATCCAC", "PBM E-score": -0.00621}
{"sequence": "CAAAATTA", "PBM E-score": 0.148}
{"sequence": "CTGCTTCA", "PBM E-score": -0.206}
{"sequence": "CCCCAAGG", "PBM E-score": -0.166}
{"sequence": "ATTGTAAC", "PBM E-score": 0.148}
{"sequence": "CCACGAAC", "PBM E-score": 0.117}
{"sequence": "ACATGACG", "PBM E-score": 0.0415}
{"sequence": "CCAGGACG", "PBM E-score": 0.109}
{"sequence": "GCAGGTCC", "PBM E-score": 0.0509}
{"sequence": "CACCACTA", "PBM E-score": 0.0498}
{"sequence": "GTAGATAC", "PBM E-score": -0.067}
{"sequence": "CAGGACCC", "PBM E-score": -0.214}
{"sequence": "CGCAGTGA", "PBM E-score": -0.0437}
{"sequence": "TCAAAGGA", "PBM E-score": -0.037}
{"sequence": "ATGTTATG", "PBM E-score": 0.116}
{"sequence": "ACCACAGT", "PBM E-score": 0.0788}
